# Measurements as given in the supplement of paper PMC8728848.
# Some of the results follow.
# B1: ACA (Amaranthus caudatus) (protein)
# chain: MAGLPVIMCLKSNNNQKYLRYQSDNIQQYGLLQFSADKILDPLAQFEVEPSKTYDGLVHIKSRYTNKYLVRWSPNHYWITASANEPDENKSNWACTLFKPLYVEEGNMKKVRLLHVQLGHYTQNYTVGGSFVSYLFAESSQIDTGSKDVFHVIDWKSIFQFPKRYVTFKGNNGKYLGVITINQLPCLQFGYDNLNDPKVAHEMFVTSNGTICIKSTYMNKFWRLSTDDWILVDGNDPRETNEAAALFRSDVHDFNVISLLNMQKTWFIKRFTSGKPGFINCMNAATQNVDETAILEIIELGSNN
# Tests used:
# Assay in all cases: glycan array binding signal (z-score within array); higher = stronger binding
# Settings in all cases: glycan notation: IUPAC condensed, linker removed
# [1] = molecular target: Fuc(a1-2)Gal6S(b1-3)GlcNAc6S
# How it was run: (§1)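 Columns mapping to the same glycan were averaged after glycan names were converted to IUPAC-condensed notation. The data come from 3228 arrays in the Consortium for Functional Glycomics database, limited to those with an available protein sequence. Binding is reported as a within-array Z-score averaged across arrays of one protein sequence and across linkers.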
# Fuc(a1-2)Gal6S(b1-4)Glc = molecular target: Fuc(a1-2)Gal6S(b1-4)Glc
# How it was run: as §1
# [2] = molecular target: Fuc(a1-2)Gal6S(b1-4)Glc6S
# How it was run: as §1
# Fuc(a1-2)[Gal(a1-3)]Gal = molecular target: Fuc(a1-2)[Gal(a1-3)]Gal
# How it was run: as §1
# [3] = molecular target: Fuc(a1-2)[Gal(a1-3)]Gal(b1-3)GalNAc
# How it was run: as §1
# [4] = molecular target: Fuc(a1-2)[Gal(a1-3)]Gal(b1-3)GalNAc(b1-3)Gal(a1-4)Gal(b1-4)Glc
# How it was run: as §1
# [5] = molecular target: Fuc(a1-2)[Gal(a1-3)]Gal(b1-3)GlcNAc
# How it was run: as §1
# [6] = molecular target: Fuc(a1-2)[Gal(a1-3)]Gal(b1-3)GlcNAc(b1-2)Man(a1-3)[Fuc(a1-2)[Gal(a1-3)]Gal(b1-3)GlcNAc(b1-2)Man(a1-6)]Man(b1-4)GlcNAc(b1-4)GlcNAc
# How it was run: as §1
# [7] = molecular target: Fuc(a1-2)[Gal(a1-3)]Gal(b1-3)GlcNAc(b1-2)Man(a1-3)[Fuc(a1-2)[Gal(a1-3)]Gal(b1-3)GlcNAc(b1-2)Man(a1-6)]Man(b1-4)GlcNAc(b1-4)[Fuc(a1-6)]GlcNAc
# How it was run: as §1
# [8] = molecular target: Fuc(a1-2)[Gal(a1-3)]Gal(b1-3)GlcNAc(b1-3)GalNAc
# How it was run: as §1
# [9] = molecular target: Fuc(a1-2)[Gal(a1-3)]Gal(b1-3)GlcNAc(b1-6)GalNAc
# How it was run: as §1
# [10] = molecular target: Fuc(a1-2)[Gal(a1-3)]Gal(b1-4)Glc
# How it was run: as §1
# [11] = molecular target: Fuc(a1-2)[Gal(a1-3)]Gal(b1-4)GlcNAc
# How it was run: as §1
# [12] = molecular target: Fuc(a1-2)[Gal(a1-3)]Gal(b1-4)GlcNAc(b1-2)Man
# How it was run: as §1
# [13] = molecular target: Fuc(a1-2)[Gal(a1-3)]Gal(b1-4)GlcNAc(b1-2)Man(a1-3)[Fuc(a1-2)[Gal(a1-3)]Gal(b1-4)GlcNAc(b1-2)Man(a1-6)]Man(b1-4)GlcNAc(b1-4)GlcNAc
# How it was run: as §1
# [14] = molecular target: Fuc(a1-2)[Gal(a1-3)]Gal(b1-4)GlcNAc(b1-2)Man(a1-3)[Fuc(a1-2)[Gal(a1-3)]Gal(b1-4)GlcNAc(b1-2)Man(a1-6)]Man(b1-4)GlcNAc(b1-4)[Fuc(a1-6)]GlcNAc
# How it was run: as §1
# [15] = molecular target: Fuc(a1-2)[Gal(a1-3)]Gal(b1-4)GlcNAc(b1-3)GalNAc
# How it was run: as §1
# [16] = molecular target: Fuc(a1-2)[Gal(a1-3)]Gal(b1-4)GlcNAc(b1-6)GalNAc
# How it was run: as §1
# [17] = molecular target: Fuc(a1-2)[Gal(a1-3)]Gal(b1-4)[Fuc(a1-3)]Glc
# How it was run: as §1
# [18] = molecular target: Fuc(a1-2)[Gal(a1-3)]Gal(b1-4)[Fuc(a1-3)]GlcNAc
# How it was run: as §1
# [19] = molecular target: Fuc(a1-2)[Gal(a1-3)]Gal(b1-4)[Fuc(a1-3)]GlcNAc(b1-3)GalNAc
# How it was run: as §1
# [20] = molecular target: Fuc(a1-2)[Gal(a1-4)]Gal(b1-4)GlcNAc
# How it was run: as §1
# [21] = molecular target: Fuc(a1-2)[GalNAc(a1-3)]Gal
# How it was run: as §1
# [22] = molecular target: Fuc(a1-2)[GalNAc(a1-3)]Gal(b1-3)GalNAc(a1-3)[Fuc(a1-2)]Gal(b1-4)GlcNAc
# How it was run: as §1
# [23] = molecular target: Fuc(a1-2)[GalNAc(a1-3)]Gal(b1-3)GalNAc(b1-3)Gal(a1-4)Gal(b1-4)Glc
# How it was run: as §1
# [24] = molecular target: Fuc(a1-2)[GalNAc(a1-3)]Gal(b1-3)GlcNAc
# How it was run: as §1
# [25] = molecular target: Fuc(a1-2)[GalNAc(a1-3)]Gal(b1-3)GlcNAc(b1-2)Man(a1-3)[Fuc(a1-2)[GalNAc(a1-3)]Gal(b1-3)GlcNAc(b1-2)Man(a1-6)]Man(b1-4)GlcNAc(b1-4)GlcNAc
# How it was run: as §1
# [26] = molecular target: Fuc(a1-2)[GalNAc(a1-3)]Gal(b1-3)GlcNAc(b1-2)Man(a1-3)[Fuc(a1-2)[GalNAc(a1-3)]Gal(b1-3)GlcNAc(b1-2)Man(a1-6)]Man(b1-4)GlcNAc(b1-4)[Fuc(a1-6)]GlcNAc
# How it was run: as §1
# [27] = molecular target: Fuc(a1-2)[GalNAc(a1-3)]Gal(b1-3)GlcNAc(b1-3)GalNAc
# How it was run: as §1
# [28] = molecular target: Fuc(a1-2)[GalNAc(a1-3)]Gal(b1-3)GlcNAc(b1-6)GalNAc
# How it was run: as §1
# [29] = molecular target: Fuc(a1-2)[GalNAc(a1-3)]Gal(b1-4)Glc
# How it was run: as §1
# [30] = molecular target: Fuc(a1-2)[GalNAc(a1-3)]Gal(b1-4)GlcNAc
# How it was run: as §1
# [31] = molecular target: Fuc(a1-2)[GalNAc(a1-3)]Gal(b1-4)GlcNAc(b1-2)Man
# How it was run: as §1
# [32] = molecular target: Fuc(a1-2)[GalNAc(a1-3)]Gal(b1-4)GlcNAc(b1-2)Man(a1-3)[Fuc(a1-2)[GalNAc(a1-3)]Gal(b1-4)GlcNAc(b1-2)Man(a1-6)]Man(b1-4)GlcNAc(b1-4)GlcNAc
# How it was run: as §1
# [33] = molecular target: Fuc(a1-2)[GalNAc(a1-3)]Gal(b1-4)GlcNAc(b1-2)Man(a1-3)[Fuc(a1-2)[GalNAc(a1-3)]Gal(b1-4)GlcNAc(b1-2)Man(a1-6)]Man(b1-4)GlcNAc(b1-4)[Fuc(a1-6)]GlcNAc
# How it was run: as §1
# [34] = molecular target: Fuc(a1-2)[GalNAc(a1-3)]Gal(b1-4)GlcNAc(b1-3)Gal(b1-4)GlcNAc
# How it was run: as §1
# [35] = molecular target: Fuc(a1-2)[GalNAc(a1-3)]Gal(b1-4)GlcNAc(b1-3)Gal(b1-4)GlcNAc(b1-3)Gal(b1-4)GlcNAc
# How it was run: as §1
# [36] = molecular target: Fuc(a1-2)[GalNAc(a1-3)]Gal(b1-4)GlcNAc(b1-3)GalNAc
# How it was run: as §1
# [37] = molecular target: Fuc(a1-2)[GalNAc(a1-3)]Gal(b1-4)GlcNAc(b1-3)[Fuc(a1-2)[GalNAc(a1-3)]Gal(b1-4)GlcNAc(b1-6)]GalNAc
# How it was run: as §1
# [38] = molecular target: Fuc(a1-2)[GalNAc(a1-3)]Gal(b1-4)GlcNAc(b1-6)GalNAc
# How it was run: as §1
# [39] = molecular target: Fuc(a1-2)[GalNAc(a1-3)]Gal(b1-4)[Fuc(a1-3)]GlcNAc
# How it was run: as §1
# [40] = molecular target: Fuc(a1-2)[GalNAc(a1-3)]Gal(b1-4)[Fuc(a1-3)]GlcNAc(b1-3)GalNAc
# How it was run: as §1
# [41] = molecular target: Fuc(a1-2)[GalNAc(a1-4)]Gal(b1-4)GlcNAc
# How it was run: as §1
# [42] = molecular target: Fuc(a1-2)[GalNAc(b1-3)]Gal
# How it was run: as §1
# Fuc(a1-3)GlcNAc = molecular target: Fuc(a1-3)GlcNAc
# How it was run: as §1
binder,measurement,setting,value
B1,glycan array binding signal (z-score),[1],-0.216
same,glycan array binding signal (z-score),Fuc(a1-2)Gal6S(b1-4)Glc,-0.278
same,glycan array binding signal (z-score),[2],-0.123
same,glycan array binding signal (z-score),Fuc(a1-2)[Gal(a1-3)]Gal,-0.175
same,glycan array binding signal (z-score),[3],-0.284
same,glycan array binding signal (z-score),[4],-0.181
same,glycan array binding signal (z-score),[5],0.33
same,glycan array binding signal (z-score),[6],-0.45
same,glycan array binding signal (z-score),[7],-0.343
same,glycan array binding signal (z-score),[8],-0.235
same,glycan array binding signal (z-score),[9],0.471
same,glycan array binding signal (z-score),[10],-0.242
same,glycan array binding signal (z-score),[11],-0.304
same,glycan array binding signal (z-score),[12],-0.223
same,glycan array binding signal (z-score),[13],0.028
same,glycan array binding signal (z-score),[14],-0.403
same,glycan array binding signal (z-score),[15],-0.078
same,glycan array binding signal (z-score),[16],0.406
same,glycan array binding signal (z-score),[17],-0.424
same,glycan array binding signal (z-score),[18],0.218
same,glycan array binding signal (z-score),[19],0.188
same,glycan array binding signal (z-score),[20],-0.302
same,glycan array binding signal (z-score),[21],-0.401
same,glycan array binding signal (z-score),[22],-0.463
same,glycan array binding signal (z-score),[23],-0.585
same,glycan array binding signal (z-score),[24],-0.05
same,glycan array binding signal (z-score),[25],-0.352
same,glycan array binding signal (z-score),[26],-0.749
same,glycan array binding signal (z-score),[27],-0.016
same,glycan array binding signal (z-score),[28],-0.491
same,glycan array binding signal (z-score),[29],-0.187
same,glycan array binding signal (z-score),[30],-0.187
same,glycan array binding signal (z-score),[31],-0.449
same,glycan array binding signal (z-score),[32],0.132
same,glycan array binding signal (z-score),[33],-0.025
same,glycan array binding signal (z-score),[34],-0.525
same,glycan array binding signal (z-score),[35],0.467
same,glycan array binding signal (z-score),[36],-0.302
same,glycan array binding signal (z-score),[37],-0.435
same,glycan array binding signal (z-score),[38],-0.116
same,glycan array binding signal (z-score),[39],0.474
same,glycan array binding signal (z-score),[40],1.38
same,glycan array binding signal (z-score),[41],-0.274
same,glycan array binding signal (z-score),[42],0.345
same,glycan array binding signal (z-score),Fuc(a1-3)GlcNAc,-0.103
